# Data: the supplement of paper PMC10369915
# The list shows a part of the results. Rule as the data show it: active = 3.2 or more and inactive = the rest. The signal is at background level for most entries.
# How the values were obtained:
# Test in all cases: enrichment score (SH2-bound / input frequency) (ratio); bacterial display of known human phosphotyrosine sites (pTyr-Var adds point mutants) read by sequencing; higher = stronger binding; tyrosines were phosphorylated by kinases first
# Settings in all cases: peptide library: Human pTyr
# [1] = molecular target: SHP2 C-SH2 domain E139D
# [2] = molecular target: SHP2 C-SH2 domain wild-type
# [3] = molecular target: SHP2 N-SH2 domain L43F
# [4] = molecular target: SHP2 N-SH2 domain T42A
# [5] = molecular target: SHP2 N-SH2 domain T52S
# [6] = molecular target: SHP2 N-SH2 domain wild-type
# 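Also: displayed peptides selected on beads carrying the immobilized SH2 domain, with library peptides lacking any tyrosine serving as negative controls.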
Binder,enrichment score [1],enrichment score [2],enrichment score [3],enrichment score [4],enrichment score [5],enrichment score [6]
TAHTHGRYVPPSSTD [MUC1_HUMAN_1218_YA],inactive: 1.28,inactive: 1.15,inactive: 1.1,inactive: 1.41,inactive: 1.47,inactive: 1.27
IFPARDTYHPMSEYP [MUC1_HUMAN_1203],inactive: 0.583,inactive: 0.65,inactive: 0.613,inactive: 0.705,inactive: 0.911,inactive: 0.501
ADEEMTGYVATRWYR [MK11_HUMAN_182],inactive: 1.05,inactive: 0.846,inactive: 1,inactive: 0.86,inactive: 0.893,inactive: 0.981
KHSQELQYATPVFQE [MILR1_HUMAN_313],inactive: 1.08,inactive: 1.55,active: 18.4,active: 6.24,active: 10.6,inactive: 2.35
DFSTKDIYQDLNRLL [MSH2_HUMAN_238],inactive: 1.09,inactive: 1.12,inactive: 1.55,inactive: 1.12,inactive: 1.13,inactive: 1.25
TVKEVMHYLGQYIMV [MDM4_HUMAN_55],inactive: 2.17,inactive: 2.39,inactive: 2.39,inactive: 2.44,inactive: 2.24,active: 3.33
TVKEVMHYLGQAIMV [MDM4_HUMAN_55_YA],inactive: 1.45,inactive: 1.67,inactive: 1.58,inactive: 1.19,inactive: 1.89,inactive: 1.99
SARIQRAYNHYFDLI [MPP6_HUMAN_500],inactive: 1.73,inactive: 1.54,inactive: 1.65,inactive: 1.62,inactive: 1.57,inactive: 1.96
SAKSGAVYSELNFGG [MILR1_HUMAN_338_YA],inactive: 0.869,inactive: 1.33,inactive: 3,active: 5.55,inactive: 1.91,inactive: 0.697
GTPRRLLYCQRSLLD [MMP14_HUMAN_573],inactive: 1.12,inactive: 1.11,inactive: 1.14,inactive: 1.22,inactive: 1.08,inactive: 1.3
VKDPSPLYDMLRKNL [MDM4_HUMAN_99],inactive: 0.993,inactive: 1,inactive: 1.2,inactive: 1.04,inactive: 1.05,inactive: 1.07
ADSEMTGYVVTRWAR [MK12_HUMAN_185_YA],inactive: 2.04,inactive: 1.57,inactive: 1.51,inactive: 1.44,inactive: 1.65,inactive: 1.39
TSFMMTPYVVTRYYR [MK08_HUMAN_185],inactive: 1.72,inactive: 0.969,inactive: 1.45,inactive: 1.14,inactive: 1.27,inactive: 1.13
ASLVSQDYVNGTDQE [MED28_HUMAN_64],inactive: 0.602,inactive: 0.65,inactive: 0.781,inactive: 0.692,inactive: 0.629,inactive: 0.703
VTASDKNYVAGLIDY [MELK_HUMAN_367],inactive: 0.66,inactive: 0.601,inactive: 0.675,inactive: 0.59,inactive: 0.581,inactive: 0.537
STFIGEHYVHVNATA [MET_HUMAN_1349_YA],inactive: 0.86,inactive: 0.794,inactive: 0.607,inactive: 0.639,inactive: 0.72,inactive: 0.675
ADAEMTGYVVTRWYR [MK13_HUMAN_182],inactive: 2.12,inactive: 1.92,inactive: 1.77,inactive: 1.68,inactive: 1.97,inactive: 1.95
AADRDEVYTIPNSLK [MFA3L_HUMAN_287],inactive: 0.668,inactive: 0.562,inactive: 0.476,inactive: 0.604,inactive: 0.723,inactive: 0.91

Binder,enrichment score [1],enrichment score [2],enrichment score [3],enrichment score [4],enrichment score [5],enrichment score [6]
KPKGNKDYHLQTCCG [MELK_HUMAN_163],inactive: 1.24,inactive: 1.21,inactive: 1.13,inactive: 1.15,inactive: 1.31,inactive: 2.06
NIASADAYKANENDA [MUSK_HUMAN_756_YA],inactive: 0.704,inactive: 0.767,inactive: 0.744,inactive: 0.895,inactive: 0.83,inactive: 0.796
GYDILEGYPKKISEL [MMP13_HUMAN_366],inactive: 0.68,inactive: 0.652,inactive: 0.648,inactive: 0.467,inactive: 0.761,inactive: 0.605
DAATTNGYTPLHISA [ANK2_HUMAN_531],inactive: 0.699,inactive: 0.568,inactive: 0.636,inactive: 0.681,inactive: 0.577,inactive: 0.557
SLLDDTVYECVVEKH [41_HUMAN_222],inactive: 1.14,inactive: 0.978,inactive: 1.08,inactive: 1.07,inactive: 1.26,inactive: 1.11
FGLSRNIYSADYYKA [MUSK_HUMAN_751],inactive: 0.805,inactive: 0.954,inactive: 0.831,inactive: 0.791,inactive: 0.697,inactive: 0.637
VTASDKNYVAGLIDA [MELK_HUMAN_367_YA],inactive: 0.677,inactive: 0.703,inactive: 0.579,inactive: 0.725,inactive: 0.525,inactive: 0.63
KKIYSGDYYRQGRIA [MERTK_HUMAN_753],inactive: 1.85,inactive: 1.86,inactive: 1.59,inactive: 1.4,inactive: 1.84,inactive: 2.32
IFPARDTYHPMSEAP [MUC1_HUMAN_1203_YA],inactive: 0.731,inactive: 0.637,inactive: 0.809,inactive: 0.738,inactive: 0.662,inactive: 0.758
ADEEMTGYVATRWAR [MK11_HUMAN_182_YA],inactive: 0.892,inactive: 0.695,inactive: 0.758,inactive: 0.75,inactive: 0.829,inactive: 0.933
AIPSAPLYEEITYSG [MGRN1_HUMAN_411],inactive: 0.587,inactive: 0.604,inactive: 0.792,inactive: 0.562,inactive: 0.631,inactive: 0.659
DEPVADPYDQSFESR [MK14_HUMAN_323],inactive: 1.1,inactive: 0.881,inactive: 0.906,inactive: 0.976,inactive: 0.998,inactive: 1.05
NIYSADYYKANENDA [MUSK_HUMAN_756],inactive: 0.885,inactive: 1.01,inactive: 0.915,inactive: 0.929,inactive: 0.987,inactive: 1.17
SAVKNEEYFMFPEPK [MELK_HUMAN_438],inactive: 0.673,inactive: 1.03,inactive: 0.724,inactive: 1,inactive: 0.934,inactive: 0.819
GADILEGYPKKISEL [MMP13_HUMAN_366_YA],inactive: 0.717,inactive: 0.626,inactive: 0.74,inactive: 0.703,inactive: 0.587,inactive: 0.787
TYHTHGRYVPPSSTD [MUC1_HUMAN_1218],inactive: 1.8,inactive: 1.72,inactive: 1.69,inactive: 1.83,inactive: 1.92,inactive: 2.39
SARIQRAYNHAFDLI [MPP6_HUMAN_500_YA],inactive: 0.773,inactive: 0.729,inactive: 0.685,inactive: 0.694,inactive: 0.698,inactive: 0.776
TSFMMTPYVVTRAAR [MK08_HUMAN_185_YA],inactive: 1.24,inactive: 0.834,inactive: 1.21,inactive: 1.46,inactive: 1.36,inactive: 0.819
